From the RNAGym collection of RNA variant scans (doi:10.1073/pnas.2313332121)
Variants at the background level are over-represented here.

B1: TPR 5TU (parent)
chain: GGAUCUUCUCGAUCUAACAAAAAAGACAAAUCUGCCACAAAGCUUGAGAGCAUCUUCGGAUGCAGAGGCGGCAGCCUUCGGUGGCGCGAUAGCGCCAACGUUCUCAACUAUGACACGCAAAACGCGUGCUCCGUUGAAUGGAGUUUAUCAUG

Variants of: B1
Assay: polymerase ribozyme fitness, log enrichment relative to wild type (log ratio); higher = more active; in vitro selection for triplet polymerase activity
Outline: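 Libraries of mutants in each subunit of a heterodimeric triplet polymerase ribozyme were generated by PCR and transcribed. In triplicate, each went through one in vitro selection round: annealing with biotinylated primer, partner subunit and triplets; frozen incubation at −7 °C; gel excision of extended constructs; streptavidin-bead capture; RT-PCR. Fitness, taken from Illumina sequencing of input and output libraries, is the logarithm of a genotype's enrichment over wild-type enrichment, averaged across replicates with inverse-variance weights. The logarithm is base 2, and genotypes needed ≥10 input reads and ≥1 read per output to be kept.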

Variant	polymerase ribozyme fitness (log ratio)
GGAUCUUCUCGAUCUAACAAAAAAGACAAAACUGCCACAAAGCUUGAGAGCAUCUUCGGAUGCAGAAGCGGCAGCCUUCGGUGGCGCGAUAGCGCCAACGUUGUCAACUAUGUCACGCAAAACGCGUGCUCUGUUGAAUGGAGUUUAUCAUG [U31A G67A C103G A113U C132U]	≤ -4.2
GGAUCUUCUCGAUCUAACAAAAAAGACAAAACUGCCACAAAGCUUGAGAGCAUCUUCGGAUGCAGAGGCGGCAGCCUUCGGUGGCGCGAUAGCGGCAACGUUCUCAACUAUGACACGCAAAACGAGUGCUCCGUUGAAUGGAGUUUAUCAUG [U31A C95G C125A]	-1.34
GGAUCUUCUCGAUCUAACAAAAAAGACAAAACUGCCACAAAGCUUGAGAGCAUCUUCGGAUGCAGAGGCGGCAGCCUUCGGUGGCGCGAUAGUGCCAACGUUCUCAACUAUGACACGCAAAACGCGUGCUCCGUUGAAUGGAGUUUAUCAUG [U31A C93U]	0.0654
GGAUCUUCUCGAUCUAACAAAAAAGACAAAACUGCCACAAAGCUUGAGAGCAUCUUCGGAUGCAGAGGCGGCAGCCUUCGGUGGCGCGAUAGCGCCAACGUUCUCAACUAGGACACGCUACACGCGUGCUCCGUUGCAUGGAGUUUAUCAUG [U31A U111G A119U A121C A137C]	≤ -4.2
GGAUCUUCUCGAUCUAACAAAAAAGACAAAACUGCCACAAAGCUUGAGAGCAUCUUCGGAUGCAGAGCCGGCAGCAUUCGGUGGAGCGAUAGCGCCAACGUUCUCAACUAUGACACGCAAAACGCGUGCUCCGUUGAAUGGAGUUUAUCAUG [U31A G68C C76A C85A]	≤ -4.2
GGAUCUUCUCGAUCUAACAAAAAAGACAAAACUGCCACAAAGCUUGAGAGCAUCUACGGAUGCAGAGGCGGCAGCCUUCGGUGGCACGAUAGCGCCCACGUUCUAAACUAUGACACGCAAAACGCGUGCUCCGUUGAAUGGAGUCUAUCAUG [U31A U56A G86A A97C C105A U145C]	≤ -4.2
GGAUCUUCUCGAUCUAACAAAAAAGACAAAACUGCCACAAAGCUUGAGAGCAGCUUCGGAUGCAGAGGCGGCAGCCUUCGGUGUCGCGAUAGCGCGAACGUUCUCAACUAUGACACGCAAAACGCGUGCUCCGUUGAAUGGAGUUUAUCAUG [U31A U53G G84U C96G]	≤ -4.2
GGAUCUUCUCGAUCUAACAAAAAAGACAAAACUGCCACAAAGCUUGAGAGCAUCUUCGGAUGCAGAGGCGGCAGCCUUCGGUGGCGCGAUAGAGCCAACGUUCUCAACUAUGACACGCAAAACGCGCGCUCCGUUGAAUGGAGUUUAUCAUG [U31A C93A U127C]	-3.92
GGAUCUUCUCGAUCUAACAAAAAAGACAAAACUGCCACAAAGCUUGAGAGCAUCUUCGGAUGCAGAGGCGGCAGGCUUCGGUGGCGCGAUAGCGUCAACGUUCUCAACUAUGACACGUAAAACGCGUGCUCCGUUGAAUGGAGUUUAUCAUG [U31A C75G C95U C118U]	-3.7
GGAUCUUCUCGAUCUAACAAAAAAGACAAAACUGCCACAAAGCUUGAGAGCAUCUUCAGAAGCAGAGGCGGCAGCCUUCGGUGUCGCGCUAGCGCCAACGUUCUCAACUAUGACACGCAAAACGCGUGCUCCGUUGAAUGGAGUUUAUCAUG [U31A G58A U61A G84U A89C]	-3.15
GGAUCUUCUCGAUCUAACAAAAAAGACAAAACUGCCACAAAGCUUGAGAGCAUCUUCGGAUGCAGAGGCGGCAGCGUUCGGUGGCUCGAUAGCGCCAACGUUCUCAACUAUGACACGCAAAACGCGUGCUCCGUUGAAUGGAUUUUAUCAUG [U31A C76G G86U G143U]	≤ -4.2
GGAUCUUCUCGAUCUAACAAAAAAGACAAAACUGCCACAAAGCUUGAGAGCAUCUUCGGAUGCAGAGGCGGCAGCCUUCGGUGGCACGAUAGCGCCAACGUUCUCAACUAUGACACGCAAAACGCGUGCUCCGCUGAAUGGAGUUUAUCAUG [U31A G86A U134C]	-0.431
GGAUCUUCUCGAUCUAACAAAAAAGACAAAACUGCCACAAAGCUUGAGAGCAUCUUCGGAUGCAGACGCUGCAGCCCUCGGUGGCGCGAUAGCGCCAACGUUCUCAACUAUGACACGCAAAACGCGUGCUCCGUUGAAUGGAGUUUAUCAUG [U31A G67C G70U U77C]	≤ -4.2
GGAUCUUCUCGAUCUAACAAAAAAGACAAAACUGCCACAAAGCUUGAGACCAUCUUCGGAUGCAGAGGCGGCAGCCUUCGGUGGCGCGAUAGCGACAACGUUCUCAACUAUGACAUGCAAAACGCGUGCUCCGUUGAAUGGAGUUUAACAUG [U31A G50C C95A C116U U148A]	≤ -4.2
GGAUCUUCUCGAUCUAACAAAAAAGACAAAACUGCCACAAAGCUUGAGAGCAUCUUCGGAUGCAGAGGCAGCAGCAUUCGGUGGCGCGAUAGCGCUAACGUUCUCAACUAUGACACGCAAAACGCGUGCUCCGUUGAAUGGAGUUUAUCAUG [U31A G70A C76A C96U]	≤ -4.2
GGAUCUUCUCGAUCUAACAAAAAAGACAAAACUGCCACAAAGCUUGAGAGCAUCUUCGGAAGCAGAGGCGGCAGCCGUCGCUGGCGUGAUAGCGCCAACGUUCUCAACUAUGACACGCAAAACGCGUGCUCCGUUGAAUGGAGUUUAUCAUG [U31A U61A U77G G81C C87U]	≤ -4.2
GGAUCUUCUCGAUCUAACAAAAAAGACAAAACUGCCACAAAGCUUCAGAGCAUCUUCGGAUGCAGAGGCGGCAGCCUUCGGUGGCGCGAUAGCGUCAACGUUCUCAACUAUGACACGCAAAACGCGUGCUCCGUUGAAUGGAGUUUAUCAUG [U31A G46C C95U]	-1.57
GGAUCUUCUCGAUCUAACAAAAAAGACAAAACUGCCACAAAGCUCGAGAGCAUCUUCGGAUGCAGAGGCGACAGCCUUCGGUGGCGUGAUAGCGCCGACGUUCUUAACUAUGACACACAAAACGCGUGCUCCGUUGAAUGGAGUUUAACAUG [U31A U45C G71A C87U A97G C105U G117A U148A]	≤ -4.2
GGAUCUUCUCGAUCUAACAAAAAAGACAAAACUGCCACAAAGCUUGAGAGCAUCUUCGGAUGCAGAGGCGUCAGCCUUCGGUGGCGCGAUAGCGCCAACGUUCUCAACUAUGACACGCAAAACGUCUGCUCCGUUGAAUGGAGUUUAUCAUG [U31A G71U C125U G126C]	≤ -4.2
